Test results reported in a collection of fitness landscapes (doi:10.1126/science.1257360).
This is one part of the list.

B1: PhoQ; a variant is named by its letters at X, in order, P23837 (parent)
chain: MKKLLRLFFPLSLRVRFLLATAAVVLVLSLAYGMVALIGYSVSFDKTTFRLLRGESNLFYTLAKWENNKLHVELPENIDKQSPTMTLIYDENGQLLWAQRDVPWLMKMIQPDWLKSNGFHEIEADVNDTSLLLSGDHSIQQQLQEVREDDDDAEMTHSVAVNVYPATSRMPKLTIVVVDTIPVELKSSYMVWSWFIYVLSANLLLVIPLLWVAAWWSLRPIEALAKEVRELEEHNRELLNPATTRELTSLVRNLNRLLKSERERYDKYRTTLTDLTHSLKTPLXXLQXXLRSLRSEKMSVSDAEPVMLEQISRISQQIGYYLHRASMRGGTLLSRELHPVAPLLDNLTSALNKVYQRKGVNISLDISPEISFVGEQNDFVEVMGNVLDNACKYCLEFVEISARQTDEHLYIVVEDDGPGIPLSKREVIFDRGQRVDTLRPGQGVGLAVAREITEQYEGKIVAGESMLGGARMEVIFGRQHSAPKDE

Variants of: B1
Assay: enrichment ratio after two sorts for PhoP signalling (ratio (wild type AVST 3.29)); higher = more functional
Settings: with PhoP (E. coli)
For ETLM, the enrichment ratio was at most 0.25. ANRR gave an enrichment ratio of at most 0.25. CYSS gave an enrichment ratio of at most 0.25. In the case of AFRS, the enrichment ratio is reported as at most 0.25. With NWCH the enrichment ratio was at most 0.25. Work on VAVY yielded an enrichment ratio of at most 0.25. Work on RVPS yielded an enrichment ratio of at most 0.25. Variant SGCG has an enrichment ratio of 8.56. With VMFH the enrichment ratio was at most 0.25. For VFTG, the enrichment ratio was at most 0.25. With KYFK the enrichment ratio was at most 0.25. For HAGK, the enrichment ratio was at most 0.25. Variant NPGA has an enrichment ratio of at most 0.25. LGWQ was tested, and the enrichment ratio was 2.87. In the case of WDNA, the enrichment ratio is reported as at most 0.25. Work on HQEE yielded an enrichment ratio of at most 0.25. ITVS was tested, and the enrichment ratio was at most 0.25. Work on NPEC yielded an enrichment ratio of at most 0.25. AFMK was tested, and the enrichment ratio was at most 0.25. In the case of GDHQ, the enrichment ratio is reported as at most 0.25. VWIE gave an enrichment ratio of at most 0.25. Work on LDHS yielded an enrichment ratio of at most 0.25. Variant KADV has an enrichment ratio of at most 0.25. VNYG gave an enrichment ratio of at most 0.25. Variant PRAN has an enrichment ratio of at most 0.25. Variant SQEP has an enrichment ratio of at most 0.25. With KYKY the enrichment ratio was at most 0.25. In the case of QSPS, the enrichment ratio is reported as at most 0.25. For LTAN, the enrichment ratio was at most 0.25. With TKFK the enrichment ratio was at most 0.25. Work on RFVG yielded an enrichment ratio of at most 0.25. EHDY showed an enrichment ratio of at most 0.25. For CTSG, the enrichment ratio was at most 0.25. For FHRM, the enrichment ratio was at most 0.25. VYFV showed an enrichment ratio of at most 0.25. For NDNR, the enrichment ratio was at most 0.25. For LNYP, the enrichment ratio was at most 0.25. For KMLG, the enrichment ratio was at most 0.25. WHSV showed an enrichment ratio of at most 0.25. YRSW was tested, and the enrichment ratio was at most 0.25. For TYRY, the enrichment ratio was at most 0.25. Variant QHLH has an enrichment ratio of at most 0.25. Variant HHFA has an enrichment ratio of at most 0.25. Variant GDDY has an enrichment ratio of at most 0.25. MTHT was tested, and the enrichment ratio was at most 0.25. IRQK gave an enrichment ratio of at most 0.25. Variant NHYD has an enrichment ratio of at most 0.25. SEAS gave an enrichment ratio of 26.6. NKRV was tested, and the enrichment ratio was at most 0.25. For REQA, the enrichment ratio was at most 0.25. RSGC showed an enrichment ratio of at most 0.25. With EYPR the enrichment ratio was at most 0.25. Work on SNMW yielded an enrichment ratio of 3.59. Variant SADC has an enrichment ratio of at most 0.25. In the case of YNQT, the enrichment ratio is reported as at most 0.25. GEGH was tested, and the enrichment ratio was at most 0.25. KQWD gave an enrichment ratio of at most 0.25. For SWEH, the enrichment ratio was at most 0.25. Variant MKEN has an enrichment ratio of at most 0.25. For DQHM, the enrichment ratio was at most 0.25. In the case of VWPW, the enrichment ratio is reported as at most 0.25. For EEIT, the enrichment ratio was at most 0.25. For WAFV, the enrichment ratio was at most 0.25. For LKYQ, the enrichment ratio was at most 0.25. GWYH showed an enrichment ratio of at most 0.25. AECA was tested, and the enrichment ratio was 42.4. With TDCY the enrichment ratio was 9.9. With AKFE the enrichment ratio was at most 0.25. EIVR showed an enrichment ratio of at most 0.25. In the case of WTSA, the enrichment ratio is reported as at most 0.25. YHPK was tested, and the enrichment ratio was at most 0.25. Variant FLSE has an enrichment ratio of at most 0.25. AKGN gave an enrichment ratio of at most 0.25. For MHDE, the enrichment ratio was at most 0.25. With WKAT the enrichment ratio was at most 0.25. Work on VCQK yielded an enrichment ratio of at most 0.25.
